For experiment [1], the system named is RAW-Dual. The experiment in a line: NF-kB SEAP reporter activity, fold change vs agonist alone; higher = enhanced NF-kB activity. The note with it: library stock concentration (final ~1000-fold dilution): 10 mM. In outline:
(§1)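 RAW-Dual macrophages were seeded in DMEM at 50,000 cells/well in 384-well plates, given 50 nL of library stock by pin tool, and given a PRR agonist 1 h later. Plates were held at 37 °C, 5% CO2 for 20 hours, after which supernatant was read for IRF by QuantiLuc luminescence and for NF-κB by QuantiBlue absorbance at 620 nm. Reporter activity is expressed as fold change over wells that received agonist alone. A well was called cytotoxic when IncuCyte confluency fell below 70% of agonist controls in both mask sets.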

Experiment [2] concerns RAW-Dual. Briefly: NF-kB SEAP reporter activity, fold change vs agonist alone; cytotoxicity flag (confluency mask): not cytotoxic; higher = enhanced NF-kB activity. A digest of the protocol:
as §1

Experiment [3] concerns RAW-Dual. The experiment in a line: NF-kB SEAP reporter activity, fold change vs agonist alone; cytotoxicity flag (confluency mask): cytotoxic (confluency <70% of control); higher = enhanced NF-kB activity. A digest of the protocol:
as §1

Setting [4] is: cytotoxicity flag (confluency mask): not cytotoxic, agonist: Imiquimod (TLR7) […].
[5] abbreviates: cytotoxicity flag (confluency mask): not cytotoxic, agonist: MPLA (TLR4) […].
[6] abbreviates: agonist: ODN 1826 (TLR9) 0.5 ug/mL.
The mark [7] stands for this setting: agonist: Pam2CSK4 (TLR2/6) 0.1 ug/mL.
Where [8] appears, read: agonist: Pam3CSK4 (TLR2/1) 0.1 ug/mL.
The mark [9] stands for this setting: cytotoxicity flag (confluency mask): cytotoxic (confluency <70% of control), agonist: Imiquimod (TLR7) […].
[10] abbreviates: cytotoxicity flag (confluency mask): cytotoxic (confluency <70% of control), agonist: MPLA (TLR4) […].

The full ranking holds about 2,900 compounds; the median of “NF-kB SEAP reporter activity, fold change vs agonist alone” is about 0.99, and the highest 2% start at about 2.6. This is one part of the list.

Regarding `Cc1c(C(=O)Nc2ccc(N3CCC(N4CCOCC4)CC3)c(C#N)c2)cnn1-c1ccc(Cl)cc1`, the results for the “NF-kB SEAP reporter activity” value in experiment [1] (setting [4]) and in experiment [1] (setting [5]) were 1.32 and 1.51, respectively.
Regarding `Cc1c(C(=O)Nc2ccc(N3CCC(N4CCOCC4)CC3)c(C#N)c2)cnn1-c1ccc(Cl)cc1` (library stock concentration (final ~1000-fold dilution): 10 mM), the “NF-kB SEAP reporter activity” value in experiment [2] (agonist: LPS (TLR4) 0.1 ug/mL) came to 0.827; in experiment [2] (setting [6]) it was 1.92; in experiment [2] (setting [7]) it was 0.819; in experiment [2] (setting [8]) it was 1.3.
For `OCC1OC(Oc2ccc(O)cc2)C(O)C(O)C1O` (stereo not drawn) (library stock concentration (final ~1000-fold dilution): 10 mM), in that order: 1.45, 0.976, 1.07 and 1.17.
For `OCC1OC(Oc2ccc(O)cc2)C(O)C(O)C1O` (stereo not drawn), the results for the “NF-kB SEAP reporter activity” value in experiment [1] (setting [4]) and in experiment [1] (setting [5]) were 0.855 and 0.972, respectively.
For `C1=CCOCc2cc(ccc2OCCN2CCCC2)Nc2nccc(n2)-c2cccc(c2)COC1`, the entries for the “NF-kB SEAP reporter activity” value in experiment [1] (setting [9]) and in experiment [1] (setting [10]) were 1.52 and 0.838, respectively.
Take `C1=CCOCc2cc(ccc2OCCN2CCCC2)Nc2nccc(n2)-c2cccc(c2)COC1` (library stock concentration (final ~1000-fold dilution): 10 mM): the “NF-kB SEAP reporter activity” value stood at 0.498 in experiment [3] (agonist: LPS (TLR4) 0.1 ug/mL), 0.245 in experiment [3] (setting [6]), 0.176 in experiment [3] (setting [7]) and 0.256 in experiment [3] (setting [8]).
Consider `Cc1c(Br)c(Br)c2c3c1nc(N1CCNCC1)n3CCC2.Cl`, for which the entries for the “NF-kB SEAP reporter activity” value in experiment [1] (setting [9]) and in experiment [1] (setting [10]) were 0.154 and 0.272, respectively.
As for `Cc1c(Br)c(Br)c2c3c1nc(N1CCNCC1)n3CCC2.Cl` (library stock concentration (final ~1000-fold dilution): 10 mM), the “NF-kB SEAP reporter activity” value turned out to be 0.39 in experiment [3] (agonist: LPS (TLR4) 0.1 ug/mL), 0.167 in experiment [3] (setting [6]), 0.0751 in experiment [3] (setting [7]) and 0.133 in experiment [3] (setting [8]).
On to `Cc1ccc(Nc2ncc3c(n2)N(C)C(=O)N(c2cc(NC(=O)c4cccc(C(F)(F)F)c4)ccc2C)C3)cn1`, for which the “NF-kB SEAP reporter activity” value in experiment [1] (setting [4]) came to 0.175; in experiment [1] (setting [5]) it was 0.255.
Consider `Cc1ccc(Nc2ncc3c(n2)N(C)C(=O)N(c2cc(NC(=O)c4cccc(C(F)(F)F)c4)ccc2C)C3)cn1` (library stock concentration (final ~1000-fold dilution): 10 mM), for which the “NF-kB SEAP reporter activity” value in experiment [2] (agonist: LPS (TLR4) 0.1 ug/mL) amounted to 0.219; in experiment [2] (setting [6]), 0.2; in experiment [2] (setting [7]), 0.0688; in experiment [2] (setting [8]), 0.129.
The matching figures for `O=C(Oc1ccccc1C(=O)O)c1ccccc1O` (library stock concentration (final ~1000-fold dilution): 10 mM): 1.03, 0.921, 0.775 and 0.675.
Regarding `O=C(Oc1ccccc1C(=O)O)c1ccccc1O`, the “NF-kB SEAP reporter activity” value in experiment [1] (setting [4]) worked out at 0.884; in experiment [1] (setting [5]) it was 1.
For `COc1c(C)c2c(c(O)c1C/C=C(\C)CCC(=O)O)C(=O)OC2` (library stock concentration (final ~1000-fold dilution): 10 mM), the “NF-kB SEAP reporter activity” value in experiment [2] (agonist: LPS (TLR4) 0.1 ug/mL) turned out to be 0.417; in experiment [2] (setting [6]) it was 0.969; in experiment [2] (setting [7]) it was 0.139; in experiment [2] (setting [8]), 0.705.
Consider `COc1c(C)c2c(c(O)c1C/C=C(\C)CCC(=O)O)C(=O)OC2`, for which the “NF-kB SEAP reporter activity” value in experiment [1] (setting [4]) was 0.876; in experiment [1] (setting [5]) it was 0.948.
As to `NS(=O)(=O)c1cc(Cl)c(Cl)c(S(N)(=O)=O)c1`, the results for the “NF-kB SEAP reporter activity” value in experiment [1] (setting [4]) and in experiment [1] (setting [5]) were 1.02 and 0.984, respectively.
Take `NS(=O)(=O)c1cc(Cl)c(Cl)c(S(N)(=O)=O)c1` (library stock concentration (final ~1000-fold dilution): 10 mM): the “NF-kB SEAP reporter activity” value amounted to 0.975 in experiment [2] (agonist: LPS (TLR4) 0.1 ug/mL), 0.998 in experiment [2] (setting [6]), 1.01 in experiment [2] (setting [7]) and 1.06 in experiment [2] (setting [8]).
In the case of `CS(=O)(=O)c1ccc(-c2cnc(N)c(C(=O)Nc3ccccc3)n2)cc1` (library stock concentration (final ~1000-fold dilution): 10 mM), the “NF-kB SEAP reporter activity” value in experiment [2] (agonist: LPS (TLR4) 0.1 ug/mL) was determined as 4.61; in experiment [2] (setting [6]), 0.67; in experiment [2] (setting [7]), 1.02; in experiment [2] (setting [8]) it was 1.48.
Consider `CS(=O)(=O)c1ccc(-c2cnc(N)c(C(=O)Nc3ccccc3)n2)cc1`, for which the “NF-kB SEAP reporter activity” value worked out at 1.45 in experiment [1] (setting [4]) and 2.21 in experiment [1] (setting [5]).
Take `CCOc1cc(CC(=O)NC(CC(C)C)c2ccccc2N2CCCCC2)ccc1C(=O)O` (stereo not drawn) (library stock concentration (final ~1000-fold dilution): 10 mM): the “NF-kB SEAP reporter activity” value in experiment [2] (agonist: LPS (TLR4) 0.1 ug/mL) stood at 1.02; in experiment [2] (setting [6]), 0.971; in experiment [2] (setting [7]), 0.889; in experiment [2] (setting [8]) it was 1.02.
As to `CCOc1cc(CC(=O)NC(CC(C)C)c2ccccc2N2CCCCC2)ccc1C(=O)O` (stereo not drawn), the “NF-kB SEAP reporter activity” value was 0.996 in experiment [1] (setting [4]) and 1.07 in experiment [1] (setting [5]).
For the compound `O=C(c1ccc(/C=C/c2n[nH]c3ccccc23)cc1)N1CCNCC1` (library stock concentration (final ~1000-fold dilution): 10 mM), the “NF-kB SEAP reporter activity” value in experiment [2] (agonist: LPS (TLR4) 0.1 ug/mL) came out at 0.301; in experiment [2] (setting [6]), 0.251; in experiment [2] (setting [7]), 0.211; in experiment [2] (setting [8]), 0.386.
For the compound `O=C(c1ccc(/C=C/c2n[nH]c3ccccc23)cc1)N1CCNCC1`, the “NF-kB SEAP reporter activity” value was determined as 0.939 in experiment [1] (setting [4]) and 0.965 in experiment [1] (setting [5]).
For `C/C(=C\C(=O)Nc1ccccc1C(=O)O)c1ccc2ccccc2c1`, in that order: 1.22 and 0.986.
As for `C/C(=C\C(=O)Nc1ccccc1C(=O)O)c1ccc2ccccc2c1` (library stock concentration (final ~1000-fold dilution): 10 mM), the “NF-kB SEAP reporter activity” value in experiment [2] (agonist: LPS (TLR4) 0.1 ug/mL) came out at 1.1; in experiment [2] (setting [6]), 1.18; in experiment [2] (setting [7]), 0.777; in experiment [2] (setting [8]), 0.793.
Take `Cc1ccc(-n2sc(=O)n(Cc3ccc(F)cc3)c2=O)cc1` (library stock concentration (final ~1000-fold dilution): 10 mM): the “NF-kB SEAP reporter activity” value in experiment [3] (agonist: LPS (TLR4) 0.1 ug/mL) is 0.522; in experiment [3] (setting [6]), 0.589; in experiment [3] (setting [7]), 0.504; in experiment [3] (setting [8]) it was 0.79.
For the compound `Cc1ccc(-n2sc(=O)n(Cc3ccc(F)cc3)c2=O)cc1`, the “NF-kB SEAP reporter activity” value is 1.07 in experiment [1] (setting [9]) and 0.68 in experiment [1] (setting [10]).

(Values after the supplement of paper PMC10037445.)
